# The antibiotic and cytotoxicity screens of Wong et al. (2023)
# Some of the results follow.
# Experiments:
# HSkMC = human skeletal muscle cells; test: cytotoxicity call (relative viability < 0.9); settings: 10 µM
# HepG2 = test: cytotoxicity call (relative viability < 0.9); settings: 10 µM
# S. aureus RN4220 = test: growth inhibition call (relative growth <= 0.2); settings: 50 µM
SMILES,cytotoxicity call (HSkMC),cytotoxicity call (HepG2),growth inhibition call (S. aureus RN4220)
C[C@H]1CN([C@@H](C)CO)S(=O)(=O)c2ccc(Br)cc2O[C@H]1CN(C)S(=O)(=O)c1ccccc1F,inactive,inactive,inactive
C[C@@H]1CN([C@H](C)CO)C(=O)Cc2cc(NC(=O)Cc3ccccc3)ccc2O[C@@H]1CN(C)S(=O)(=O)c1cn(C)cn1,inactive,inactive,inactive
C[C@H](CO)N1C[C@H](C)[C@H](CN(C)S(=O)(=O)c2ccc(Cl)cc2)Oc2ccc(NS(C)(=O)=O)cc2CC1=O,inactive,inactive,inactive
C[C@@H]1CN([C@@H](C)CO)S(=O)(=O)c2ccc(Br)cc2O[C@H]1CN(C)S(=O)(=O)c1ccc(F)cc1,inactive,inactive,inactive
C[C@@H]1CCCCO[C@H](CN(C)Cc2ccc(C(F)(F)F)cc2)[C@@H](C)CN([C@H](C)CO)C(=O)c2cc(N(C)C)ccc2O1,inactive,inactive,inactive
COc1cccc(S(=O)(=O)N(C)C[C@@H]2Oc3cc(C#CCN(C)C)ccc3S(=O)(=O)N([C@@H](C)CO)C[C@@H]2C)c1,inactive,inactive,inactive
CCCN(C)C[C@H]1OCCCC[C@@H](C)Oc2ccc(NS(C)(=O)=O)cc2C(=O)N([C@@H](C)CO)C[C@H]1C,inactive,inactive,inactive
COC(=O)CC1C(C)(C)C(OC(C)=O)C2CC3C4CC(=O)OC(c5ccoc5)C4(C)CCC3C1(C)C2=O (stereo unspecified),inactive,inactive,inactive
O=C(O)c1cc(O)[nH]c(=O)c1,inactive,inactive,inactive
C[C@H]1CN([C@@H](C)CO)C(=O)c2cc(NS(C)(=O)=O)ccc2O[C@@H]1CN(C)C(=O)Nc1ccc2c(c1)OCO2,inactive,inactive,inactive
NC(=O)N1c2ccccc2CC(=O)c2ccccc21,inactive,inactive,inactive
CCC(=O)Nc1ccc(C)cc1C,inactive,inactive,inactive
C[C@H](CO)N1C[C@H](C)[C@@H](CN(C)Cc2ccncc2)OCCCC[C@H](C)Oc2ccc(NC(=O)c3ccccc3)cc2C1=O,inactive,inactive,inactive
Cc1noc(C)c1NC(=O)Nc1ccc2c(c1)C(=O)N([C@@H](C)CO)C[C@H](C)[C@H](CN(C)S(=O)(=O)c1ccc(F)cc1)OCCCC[C@@H](C)O2,inactive,inactive,inactive
C[C@@H]1CN([C@@H](C)CO)C(=O)c2cc(NC(=O)Nc3cccc4ccccc34)ccc2O[C@H]1CN(C)Cc1ccc(C(=O)O)cc1,inactive,inactive,inactive
C[C@H](CO)N1C[C@H](C)[C@@H](CN(C)Cc2ccc(C(=O)Nc3ccccc3N)cc2)Oc2c(NS(C)(=O)=O)cccc2C1=O,inactive,inactive,inactive
O=C(O)[C@H](Cc1ccc(Nc2nccc3ccncc23)cc1)NC1=C(Br)C(=O)C12CCCCC2,inactive,inactive,inactive
C[C@H](CO)N1C[C@H](C)[C@H](CN(C)Cc2ccc3c(c2)OCO3)Oc2ccc(NC(=O)Nc3ccc(C(F)(F)F)cc3)cc2C1=O,active,active,inactive
CNC[C@@H](O)c1cccc(O)c1,inactive,inactive,inactive
CCN1C(=O)[C@H]2[C@@H](O)CS[C@H]2C1=O,inactive,inactive,inactive
C[C@@H]1CN([C@H](C)CO)C(=O)c2cccc(NC(=O)Nc3ccccc3)c2O[C@@H]1CN(C)C(=O)Nc1cccc2ccccc12,inactive,inactive,inactive
C[C@@H]1CN([C@H](C)CO)C(=O)c2c(c3ccccc3n2C)-c2ccccc2CO[C@@H]1CN(C)C(=O)Nc1cccc(C(F)(F)F)c1,inactive,active,inactive
COCC(=O)N1C[C@@H](C)[C@@H](OC)CN(C)C(=O)c2ccc(NC(=O)c3ccc(OC)cc3)cc2OC[C@@H]1C,inactive,inactive,inactive
CC(C)NC(=O)N[C@H]1C=C[C@H](CC(=O)O)O[C@@H]1CO,inactive,inactive,inactive
Cc1noc(C)c1S(=O)(=O)Nc1ccc2c(c1)C(=O)N([C@H](C)CO)C[C@@H](C)[C@@H](CN(C)S(C)(=O)=O)OCCCC[C@H](C)O2,inactive,inactive,inactive
C[C@@H]1CN([C@@H](C)CO)C(=O)c2cc(NC(=O)Nc3ccc(C(F)(F)F)cc3)ccc2O[C@@H]1CN(C)C(=O)Nc1cccc2ccccc12,inactive,inactive,inactive
COc1ccc(NC(=O)Nc2ccc3c(c2)[C@H]2C[C@@H](CC(=O)NCc4ccccn4)O[C@@H](CO)[C@H]2O3)cc1,inactive,inactive,inactive
